According to PubChem BioAssay AID1468 (National Center for Advancing Translational Sciences (NCATS), 2008):
The campaign covered roughly 280,000 compounds. About 1,100 (0.39%) were called active. Inconclusive means that the source gave no clear call. Such entries were picked first, then a sample of the others. Calls follow the shape of the dose curve; as a rule, active = well fitted inhibition curve with a large enough effect; inconclusive = small, poorly fitted or top-dose-only effect, or effect the other way; inactive = flat fitted curve, though single readings scatter. Potencies of inconclusive entries are left out as doubtful fits.

target: Microtubule-associated protein tau (Homo sapiens) (UniProt P10636); assay: qHTS for Inhibitors of Tau Fibril Formation, Fluorescence Polarization; conditions: K18 P301L tau heparin fibrillization, Alexa594 FP, 6 h; series mostly up to 57.7 µM; also: nearly all actives have a fitted effect of over 55% in size
Outline: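 Human K18 P301L fragment (15 uM unlabeled plus 0.24 uM Alexa 594-labeled) in 100 mM sodium acetate pH 7 with compound, aggregation induced by 20 uM heparin for 6 hr at 37 C. ThT (30 uM) added for 1 hr, then Alexa 594 FP read.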
% is scaled to controls: 0 for no effect and ±100 for the full control effect; potency is read from the fitted curve at half-maximal effect; tags tell the direction and shape of the fitted curve.

Sequence of UniProt P10636 (P10636 whole entry, looked up, the tested form may be a part): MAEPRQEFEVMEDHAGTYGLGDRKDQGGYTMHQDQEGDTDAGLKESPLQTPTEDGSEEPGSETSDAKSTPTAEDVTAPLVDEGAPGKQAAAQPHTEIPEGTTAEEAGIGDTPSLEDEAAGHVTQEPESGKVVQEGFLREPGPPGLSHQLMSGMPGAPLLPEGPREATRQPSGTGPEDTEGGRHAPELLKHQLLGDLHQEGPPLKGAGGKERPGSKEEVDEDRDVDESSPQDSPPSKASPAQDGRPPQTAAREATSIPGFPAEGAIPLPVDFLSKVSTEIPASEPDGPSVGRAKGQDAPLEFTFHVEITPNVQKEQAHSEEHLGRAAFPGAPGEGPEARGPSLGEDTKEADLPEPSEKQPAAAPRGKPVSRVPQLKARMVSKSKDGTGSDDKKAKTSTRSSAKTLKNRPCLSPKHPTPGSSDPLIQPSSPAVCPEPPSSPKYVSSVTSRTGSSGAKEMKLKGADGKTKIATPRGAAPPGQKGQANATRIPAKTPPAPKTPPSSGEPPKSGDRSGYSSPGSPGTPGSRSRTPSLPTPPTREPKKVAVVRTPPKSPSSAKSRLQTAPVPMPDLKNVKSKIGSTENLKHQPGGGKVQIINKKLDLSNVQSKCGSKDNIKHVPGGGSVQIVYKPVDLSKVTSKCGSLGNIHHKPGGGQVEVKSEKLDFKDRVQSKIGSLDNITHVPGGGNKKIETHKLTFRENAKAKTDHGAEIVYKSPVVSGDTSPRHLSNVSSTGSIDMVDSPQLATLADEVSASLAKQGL

SMILES | Potency | activity, negative = inhibition
COc1cc(/C=C/C(=O)N2CCC=CC2=O)cc(OC)c1OC | inconclusive [inhibitor, partial curve] | –
Cc1nc(SC2CCOC2=O)c2c(C)c(C)sc2n1 (stereo not drawn) | inactive | –
C/C(Cl)=C\Cn1c(Nc2cccc(C)c2)nc2c1c(=O)n(C)c(=O)n2C | inconclusive [activator, partial curve, poor fit] | –
COc1ccc2nc(NC(=O)C3CCN(S(=O)(=O)c4cccs4)CC3)sc2c1 | inconclusive [inhibitor, single point] | –
CC(=O)OC[C@@H]1O[C@@H](O/N=C2/C[C@@H](O)[C@@H](O)[C@@H]3[C@@H]4C(=O)N(Cc5ccc6c(c5)OCO6)C(=O)[C@H]4CC[C@@H]23)[C@H](OC(C)=O)[C@H](OC(C)=O)[C@@H]1OC(C)=O | – | inactive: 0.476% [at 11.6 µM]
CC1CCN(C(=O)CSc2nnc(Cc3cc(=O)[nH]c(=O)[nH]3)n2-c2ccc(Cl)cc2)CC1 | inactive | –
O=C(NC1CC1)C1CCCN1S(=O)(=O)c1ccc2ccccc2c1 (stereo not drawn) | inactive | –
COc1ccc(NC(=O)c2cc(Br)c(Br)s2)cn1 | inconclusive [inhibitor, single point] | –
C=CCN1C(=O)[C@]2(c3ccccc31)C1CCCC=C1C(C#N)=C(N)C2(C#N)C#N (stereo partly drawn) | inconclusive [inhibitor, single point] | –
CNc1nc(SC)n(C)c(=O)c1N=O | inactive | –
COc1ccc(-c2nc3sc(CCNC(=O)c4cccc(C(F)(F)F)c4)c(C)n3n2)cc1 | inconclusive [inhibitor, partial curve, poor fit] | –
Cc1cc[n+](-c2[nH]c(=O)sc2/C=N/NC([S-])=Nc2ccccc2)cc1 | inactive | –
CCOc1ccc2c(c1)n(CO)c(=S)n2CO | inactive | –
Cc1ccc(C)c(-n2c(-c3csc(C)c3C)n[nH]c2=S)c1 | inactive | –
COC(c1ccccc1Br)C(C)/C=C/CCO (stereo not drawn) | – | inactive: 3.44% [at 11.6 µM]
COc1cccc(C(=O)Nc2ccc(-c3nc4ccccc4s3)cc2Cl)c1 | inconclusive [inhibitor, full curve, poor fit] | –
COc1ccc(C(=O)/C=C/c2cn(CC(O)CN(CC(C)C)CC(C)C)c3ccccc23)cc1 (stereo not drawn) | inactive | –
O=C(CSc1ncccc1-c1nc2ccccc2[nH]1)N1CCc2ccccc21 | inconclusive [inhibitor, single point] | –
COCCNC(=O)c1ccc(-n2c(-c3ccccc3)cc3c2CCCCC3)cc1 | active: 25.1 µM | –
N#CC(C#N)=C(Nc1ccc(F)cc1)SCc1cccc(F)c1 | inconclusive [inhibitor, single point] | –
COc1ccc(CCNC(=O)CSc2nc(N)c(C#N)c(-c3cccs3)c2C#N)cc1OC | inconclusive [inhibitor, single point] | –
N#CC(=C=[N-])c1nc2ccccc2nc1-[n+]1cccc(NC(=O)c2ccccc2)c1 | inactive | –
N#Cc1ccc(N=c2ssnc2Cl)cc1 | inconclusive [inhibitor, partial curve] | –

SMILES | Potency | activity, negative = inhibition
Cc1ccc(NC(=S)N(Cc2ccccc2)C(C)C)cc1 | inconclusive [activator, single point] | –
CCOc1ccc(-c2nc(N)ncc2Oc2ccccc2Br)c(O)c1 | inconclusive [inhibitor, partial curve, poor fit] | –
COCCNC(=O)c1ccc(C)c(S(=O)(=O)Nc2ccc(C)cc2)c1 | inconclusive [inhibitor, single point] | –
Cc1cc(C)cc(NC(=O)Nc2ccc3c(c2)N(C)C(=O)CS3)c1 | inconclusive [inhibitor, single point] | –
Cc1nnc(N/N=C\c2ccc(-c3ccccc3[N+](=O)[O-])o2)n1N | inconclusive [inhibitor, full curve] | –
O=C(CC1NC(=O)NC1=O)Nc1ccc(Cl)cc1 (stereo not drawn) | inactive | –
CCCCCCSc1nc(O)c(C2OC(=O)c3c2ccc(OC)c3OC)c(=O)n1-c1ccccc1 (stereo not drawn) | inconclusive [inhibitor, partial curve] | –
Cc1cc(N/N=C\c2ccccc2)nc(-c2ccccc2O)n1 | inconclusive [inhibitor, full curve] | –
O=C1CC(N2CCN(C/C=C/c3ccccc3)CC2)C(=O)N1CCc1ccccc1 (stereo not drawn) | inconclusive [inhibitor, single point] | –
O=C1CN(Cc2nc3cc(Cl)ccc3c(=O)[nH]2)CCN1 | inactive | –
Oc1c(C=Nc2ccccc2Cl)[nH]c2ccccc12 | inconclusive [inhibitor, single point] | –
COc1ccc(CCNC(=O)Cn2c(=O)n(-c3cc(OC)c(OC)c(OC)c3)c(=O)c3ccccc32)cc1OC | inactive | –
COc1cccc(CNc2nc3c(-c4ccccc4)nnn3c3ccccc23)c1 | inactive | –
COc1ccc(-c2[nH]ncc2N=Nc2cc(C)cc(C)c2)cc1 | inconclusive [inhibitor, partial curve] | –
CCOc1ccc(CCNCc2c(C(=O)O)n(Cc3ccc(C)cc3)c3cc(OC)ccc23)cc1 | inconclusive [activator, partial curve] | –
COc1cccc(NS(=O)(=O)c2ccc3[nH]cc(C(=O)NCCc4ccccc4)c(=O)c3c2)c1 | inconclusive [inhibitor, partial curve] | –
COc1ccc(NC(=O)C(=O)NNC(=O)c2cccs2)cc1 | inactive | –
Cc1cc(NCCCn2ccnc2)n2ncc(-c3ccc(Cl)cc3)c2n1 | inconclusive [activator, single point] | –
Cc1[nH]c2ccccc2c1C(=O)CSc1nc2ccccc2[nH]1 | inconclusive [inhibitor, single point] | –
COc1cccc(C(=O)Nc2cccc(NC(=O)c3ccc(Cl)cc3Cl)c2)c1 | inconclusive [inhibitor, partial curve] | –
CCOc1ccc(CNC(=O)CCCn2nc(C)c3sc4ccccc4c3c2=O)cc1 | inconclusive [inhibitor, single point] | –
C(=N\n1c2ccccc2c2ccccc21)/c1ccccc1 | inconclusive [inhibitor, partial curve] | –
COC(=O)c1c(C)nc(C)c(C(=O)OC)c1-c1ccsc1 | inactive | –

SMILES | Potency | activity, negative = inhibition
Cc1cc(NC(=O)CCNS(=O)(=O)c2ccc3c(c2)CCCC(=O)N3)ccc1Br | inconclusive [inhibitor, full curve, poor fit] | –
O=C(c1ccc(Cl)c([N+](=O)[O-])c1)N1CCN(C(=O)c2ccco2)CC1 | inconclusive [inhibitor, single point] | –
O=[N+]([O-])c1cc(Br)cc(C=Nc2ccc3c(c2)OCO3)c1O | inconclusive [inhibitor, single point] | –
CC(=O)Nc1cccc(NC(=O)Cc2nc(-c3ccccc3)sc2-c2ccc(C)cc2)c1 | inconclusive [inhibitor, partial curve, poor fit] | –
CCOC(=O)c1ccc(NC(=O)CC2Sc3ccc(C(F)(F)F)cc3NC2=O)cc1 (stereo not drawn) | inconclusive [inhibitor, full curve, poor fit] | –
COCCNC(=O)COC(=O)C1=Cc2ccccc2OC1 | inactive | –
Cc1ccccc1CC1C(=O)Nc2ccc(Br)cc21 (stereo not drawn) | inconclusive [inhibitor, single point] | –
COc1ccc(-c2cc(C#N)nc(NN)n2)cc1 | inconclusive [activator, full curve, poor fit] | –
Nc1n[nH]c(C2CC2)c1N=Nc1ccc(Cl)c(Cl)c1 | inconclusive [inhibitor, single point] | –
COc1ccc(C(=O)NCc2oc(-c3ccccc3)cc2C(=O)O)cc1 | inactive | –
O=S(=O)(Nc1cc(Sc2cccc3cccnc23)c(O)c2ccccc12)c1ccccc1 | inconclusive [inhibitor, single point] | –
Nc1nc(-c2ccc3c(c2)NC(=O)CO3)cs1 | inactive | –
CC1CCN(S(=O)(=O)c2ccc3c(ccc(=O)n3CC(=O)Nc3ccc(C(C)C)cc3)c2)CC1 | inconclusive [inhibitor, full curve] | –
CCN1CCc2c(sc(N)c2C(N)=O)C1 | inconclusive [inhibitor, partial curve, poor fit] | –
CN(C)c1nc(C=C(C#N)C#N)c(Cl)n1-c1ccc(F)cc1 | inconclusive [inhibitor, partial curve, poor fit] | –
CCc1ccccc1NC(=S)NC1CC2CCC(C1)N2Cc1ccc(F)cc1 (stereo not drawn) | inconclusive [inhibitor, full curve] | –
COc1ccc(Nc2cc(C)c3ccc(O)cc3n2)cc1 | inactive | –
COc1ccc(/C=C2/SC(=O)N(CC(=O)Nc3cc(C)on3)C2=O)cc1OC | inconclusive [inhibitor, partial curve] | –
Cn1cc(C(=O)N/N=C/c2c(O)ccc3ccccc23)ccc1=O | inactive | –
COc1cccc(C(=O)c2cn(CC(=O)Nc3cccc(C(F)(F)F)c3)c3nc(C)ccc3c2=O)c1 | inconclusive [inhibitor, partial curve, poor fit] | –
CC(=O)NS(=O)(=O)c1ccc(NC(=O)/C=C/c2ccc(C)o2)cc1 | inconclusive [inhibitor, single point] | –
COC(=O)c1ccc(NC(=O)c2ccccc2N(C)S(=O)(=O)c2ccccc2)cc1 | inconclusive [inhibitor, single point] | –
